# Source: the supplement of paper PMC10681739
# ± gives the standard deviation of the averaged measurements. In all, about 4,100 sequences were measured (“arbitrary fluorescence units”: median about 780, highest 2% from about 22,000 on). Some of the results follow.
# Target: T1, ETS1 (UniProt P14921)
# T1 sequence: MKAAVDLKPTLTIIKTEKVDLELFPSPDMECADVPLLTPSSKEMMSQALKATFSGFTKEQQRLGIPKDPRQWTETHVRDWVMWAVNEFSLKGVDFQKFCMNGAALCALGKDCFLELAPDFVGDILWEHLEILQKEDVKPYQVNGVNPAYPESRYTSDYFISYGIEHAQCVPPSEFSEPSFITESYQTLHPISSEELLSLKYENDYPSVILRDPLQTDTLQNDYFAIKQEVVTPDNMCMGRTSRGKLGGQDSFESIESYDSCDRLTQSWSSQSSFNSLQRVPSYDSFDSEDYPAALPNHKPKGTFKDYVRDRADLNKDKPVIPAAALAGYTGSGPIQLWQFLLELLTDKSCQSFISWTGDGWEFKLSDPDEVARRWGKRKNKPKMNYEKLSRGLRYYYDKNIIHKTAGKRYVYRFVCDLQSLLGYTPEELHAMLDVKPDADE
# Assay: ETS1 binding intensity (PBM fluorescence), ETS1 alone (arbitrary fluorescence units); higher = stronger binding
# Conditions: ETS1 concentration 1 nM; RUNX1 concentration 0 nM
# Outline: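 Full-length recombinant human ETS1 (1 nM, no RUNX1) was incubated, per standard PBM protocols, on double-stranded Agilent 4 × 180k arrays of 36-bp genomic probes whose RUNX1 partner site was mutated. Bound ETS1 was detected with anti-ETS1 antibody (Cell Signaling Technology 14069) and Alexa488-conjugated secondary antibody, then scanned on a GenePix 4400A. Binding level is spot fluorescence intensity, summarised over replicate spots (four printed per sequence) and not normalised.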
row,Sequence,ETS1 binding intensity
1,TCAGAACTTGGATTTGAGAGTTTCCTGTTTTCTTGA,1940
2,CCACACTGCCCCCCAAGGCGTTTCCGGGTTTTGAGG,2570
3,CTGCTACGGCAGAACGCGACGTGCTAACCGGAATCC,426
4,ACCTTCTGTTCCCTTCCTCAGACCGAAGGCGAGATG,465
5,GTTTTCCTGGTGGCCCGGCCATGCCTGACGTTTCTC,2620
6,ACCCACCCGGAAGTCCTCCTGGCCTACAAGCTCCGC,5570
7,GTTGAGTTCCGGGGGAGGTTGAGTTCCTGCGCTCAA,2560
8,CATAGGAAGTGCTCAGCTCTCCTCCACCTCAAGTTT,706
9,TTTTTTCCGCCCGCTTCAAACATGGCGTTCAAGCCC,4390
10,GAGCCACCGGAAACGGAGCTGCGCCCGCGCCCCGCC,9940
11,CTCTCTCCACCAGAGTCACTTATCGCTTCCTGGAGG,545
12,AGCCTCAGGGAAGTAGCGTCCCCTAGTGGCAAGAAA,379
13,CCCTTGGGGCCATGTTACACGCCAGGAAATTGAGCT,520
14,AATTCCCAGGAAGCACTCGGCAGCCATAAACTGATG,668
15,GCTTAAGGAAGGGACAACTAGAGTGAGTTACTCTGC,502
16,TGGTGGAGCTGCGCCGGGCAATCGGAAATCGGCTAC,424
17,CTTTCGCCCTTCCGCGTGCGCTTTGAACGCCCACCC,658
18,GGACTTCCTGAACTGGGAGGTCACCGACTACAACCT,10700
19,TGCTGAGTGCGCGGGGCCGGACGTCCCGAGACCGGA,431
20,TGCCACCTGCTTCCTGCCTGTGTAGCCCCAAGGGAC,8380
21,GAATGGCGGATGTGGCTGGGGAGAGAAAGCTGCAGA,3770
22,TGATGTAAACCGGACCAGCCGCTGCAGGCAAAGGAG,314
23,GCATTTACGGGCAGGAAATGAAACCCCAGAGTACAA,7680
24,TGCTCTGGCCACTGAATAACGCTTCCGTCTGAACAC,690
25,GGGCGCGACTTCCGGGGCGGCGCTTGCATCAGATTC,19500

row,Sequence,ETS1 binding intensity
1,CTTACGGCCTCGCGCCATGGGCAGTATCCGCCGCCA,328
2,CCCGGAGGGTTCCGGGGGTCGGCCTACGGCGCGTGC,529
3,TGCAGCGCATCCTGGGACGTGCAGGCGGTGCATGAG,1550
4,TCCTATTTTTACAGCAGTTGCACAGGAAATGAGGCG,1420
5,GACTAACGGGAAAGAAGGACGAGTACGCAGTCCCGG,413
6,ACTCCACCTACCCTCAGAACGCACTTCCTCAGAAGC,721
7,CCCGCTTCCGCGTTTTACTCGGTGCCTGCAGCGCCG,6570
8,AGTTGGTTCCTTCCGGTGGGTTTATGGGCTTGGGGT,13000
9,AACACACAACGACAGACTTATTTCCTGTTTCAGATT,6560
10,GGGTGCTTCCTATAAACAATGACTCATTACAGCACT,1600
11,AGTGCTGTAGGCGAGACTGCACAGGAAATAAAAAGA,1180
12,TCGCTTCCTGCTCCACTTCTCGGCGCTCACATCTCC,14200
13,GCAGTCGAGCTTCCAACATTTGGGGAAGTTGCACGA,348 ± 26
14,ACCCGGATGTCGTTGGGCAGGAACTTCGGTGAGGGC,3340
15,ACAGCCGTCATCAAAACACCAGGTCCTTCCTCGGCC,375
16,TGCCACGTCCGCCATCTTGAAACAACTGCCACTCGG,2370 ± 120
17,GCCGCCAAAAGCTGCCTGGGTGACCCGGAAACGGCA,614
18,CTCCGGGAGCCCCCAAGCGGCTTCCGGGTGCTCGCA,2130
19,CGAGGTGTCCACTCTCCTCGGCATCCGCACCTGCCC,509
20,AGCCAGCTCTGGTGAAGGGAGGAAGCCTGAGAACTG,342
21,ACGGTGCGTTTCCCCAACTACACCTCACGTCACGGA,476
22,GCAGCAAGCGCGGAACTGGGGTTTCGGCGTCTAAGT,394
23,CTCACCTCGAAGCCCAGGAGCGGCCAGGAAATGAGC,476
24,ACTGCTCAACGACACACAAGAACAGCAGGATGAGGT,420
25,TGCACCCGCCACTTCCGCATCGAACCTCCGCTTCAA,7860

row,Sequence,ETS1 binding intensity
1,CGCCTGAGGGCTGGTCCCCATCCTTCCTCTTAGACC,375
2,GTCACCTGTGACTTTTGGGGTGGGGGAGGAAGAAGA,389
3,AAAGTAGGTCCGGTCCGCGGGTGCAGTCGGGCATGC,462 ± 17
4,GGTGACGTCAACGCGTTCACCAGCCCGGAAGTGCGC,1230
5,GAGTTGCTTCCGGCCGTGTTGCTGGTCTGAATTGAG,19700
6,CTCCTCTGTTGTCAGCCATCACTTCCTCCCAGCCCG,1200
7,TCCCTTACCTTCCTGCTGCCACCAAAGCACCAAACC,1890
8,AACAAAGCACTCAATAGTGGCCAAACTACATCCTGG,631
9,CAAGAATGAGAAAGGAAGCTGGCGGCTGGGCAGGTG,491
10,GAGAGGTGCTTGCTGGGAGAGCTGTTCCGGCGCTCA,367
11,CGTCCTGTCTCTGGCCTAGAAGCTTCCTGCCCCAGC,1080
12,ATGGCGCCGACTGCAGCCACTTCCGTGATCCGCAGG,1780
13,CCTCGGTTCGGAAACGGCGAAAGCAAACAGCAAGGA,574
14,TAAATAGGAAGTCAGAGTTTACTGCCGAACCTACAG,1170
15,AACCAGTTCATCCTGGGAGCTGCTGCTGGTTCTTCA,427
16,AGGCCTACGGCGGCAGAAGGAAAGACAAGGAAATAC,410
17,CGCCGGACGGAACGCCTGGCACAGCCGCCGCTCGCT,324
18,AGTTGCATACGCGGGATTGGGCAGGAAATGGCAGGG,1190
19,AGCCGTGCTCAGCAGCAGCACGACTTCCGCCTCCGC,2660
20,AGTGAGGTAGAGAGATATTTTTTGTATCCGTGTTGG,454
21,GTGTGGAAGGAGGAAGCGAGAATGTGATTACTTAGG,732
22,CATCTGTTGTCTCCTTGAAGTCACATCCCACAGGAG,438
23,AAAGCCATCCCGCGATTGTCAATGGCAGGAAGCCAC,478
24,CCCCGCCTCTTCCGCTTCTGTTGTCTGATCTGCCTG,5640
25,GGGACTGCAGTCCCGGGGAGCGCACCGGAAGTTCTC,4610

row,Sequence,ETS1 binding intensity
1,GAAGCGGAAGTCGCTGAGGGGTGGTGAAGCGGCTGG,8260
2,GTCCTCCAGGAAGCCCGCGCTAGCCACCGTGCCTTT,550
3,CCTCTGCCAAAAGCACCATCCACTTCCCCACCCAAC,553
4,GGAGGAAGTGACACCCACCCACTGCCCCCGTAAGGT,1160
5,CAAACAGGTTCCGGCCGGACTACAGCGCCTACAATG,3740
6,CCGGGACCGTTCCGCTTCACCTCCCACCCTCAGGTT,422
7,CGTTCAGGGTTCCGCCTGAGCCTGCAGCACAGGACG,473
8,GCATGTTTTCCTGTGGAAGCGGCCTACAAAACCTGC,1950
9,TTGACTGAGGGCCGAAGCCGGGCGGAAGCAGACAGG,526
10,TCGCTCTGATAACGGCATCCCGGTTTCCGGGACGAC,2200
11,GGTGTCTACGGCAGCGCCTCAGAGTGGTTCCGGTCG,508
12,CAAGGTGCTGTGCTCACATAAGCAGGAAGAGCCCCA,476
13,CAAGCCACTTCCTTTCTTGCTCCCAGAACCTGTGTT,7990
14,GGAGGAGTGCTTTCTGAGAGAAGGAAGCACCTGCCC,390
15,CTAAGGCTGAGGGGATGGGATGACAGGAAGAGTATC,528
16,CCCGGACCCTCAGCTGCGCCTACAGACACTTCCTAG,419
17,GGAGCGACGGAAGCACCTGAAGCGCTCTTTCCCCGA,752
18,GCGCAAAGCCGGAAGGAGGGGTTTGGGGCTGGGGAG,4130
19,GACTTGGGGGAAGTGGCTTGGTTTGCGTGGATTCTC,726
20,TCGGAACGGAAGGGAGGCACGAATCCGCGAGTGGAG,799
21,CCTGTCGTAATCCTTACCGTGGCGAGTTCCGCGCTC,359
22,CCCGGCAGCGGATAGCGCCTGAGGGTCGCAGCAAAT,336
23,TGATCAGGAAGGAGAAGCGCAGAGGTGGACCCTCAA,407
24,CTCTTCCGGCCGCGAGGAGCGCGACAGCGGCCCCTG,14400
25,CGTCGCTGGGGTCCCTGCCGCCGGAACCATTAAGGA,318

row,Sequence,ETS1 binding intensity
1,ATAGACGACCCCAGCCTGTGCACCCTCAGGAAGTAA,324
2,CTGGAGAGGATGTGGCCCCAGTGAGGTTCTGTAACT,1170
3,AGCCCTCTGCAACTTCCCGGCCCCAGAGCCCCACCC,1000
4,GGCCGGAAAGGGTCTTGAGAGGAGGTGCTTGCCTTA,801
5,GGAGCGCGCTGGGGACGTTTAAAGGAAATTTACAAT,363
6,GGGCAGGTGCGGATGCCGAGGAGAGTGGACACCTCG,537
7,GTTGTGCAAGCTACAGATGATATGGGGAAGTAGTTT,405
8,AGCGTATGAACGACAGGAACTTCCGGGTTTTAAAGA,6820
9,TCGGCTCACGGTGGGAGCGCCGGAAGCCCGCCCCAC,964
10,CGGTGCCGTACGCACACCACGGATGCCACTCAGCAG,387
11,GGTGGCAACATCCTGGGGAGGGGAACCTACAGGGGA,4130
12,GGGCGGAAGTGCGTCACTATGTCCGACCAGCAGTGC,4300
13,GGCACCGGAAGTAGAGCTGCCCCTAGTTTCGGCAGT,22100
14,GTCAGGAAACACATAGTTGTGTTTAAGCTCAGGAAA,729
15,CTGTTGTCATTTGTCATAGCAGCCACAGGAAACTAG,474
16,CAGTCTCCTTCCGCGTCACCTCTGTGATCGCTGTGC,895
17,GATGGGCTGGGGATGTGGCCTGTTTGCCGCTGGCGA,361
18,GCGATCGGAGCGGAAGTGGAGCTACCGGCACCGCCG,9210
19,CGACGCGCGGAAGGAGTTCGCGCGACGACCTCGGGG,476
20,GAGAAACGTCAGGCATGGCCGGGCCACCAGGAAAAC,347
21,CGCCGAGGTAGCCGCCTCACTTCCCCTCCCGACCAC,569
22,GATGTCCGTGGCCGCCTCCGGAAGAATTCTCTGCGA,663
23,GGAGTGAGGAGGAAGCGGAGGCGAGACGGCGCTCAA,664
24,GGTTGGGTGAGGTCCGTGAGGTTCCGGCCCAGCCCA,773
25,AAGCAGTCAGGATGGCCGAGCGCTCTAAGGCGCTGC,337
